# Laboratory results published in patent US20230183352A1 (published 2023).
# Key:
# [1] = target: T1, Biotin QP004.3 (biotin-PDL1-FC) (human, UniProt Q9NZQ7 part only, limits assumed, biotin label, site not stated); assay: PD-L1 binding ELISA, antibody coated, biotin-PDL1-FC titrated
# T1 construct: In-house protein QP004.3
# [2] = target: T2, Biotin QP004.3 (biotin-PDL1-FC) (human, UniProt Q9NZQ7 part only, limits assumed, biotinylated (sites not given)); assay: as above
# [3] = target: T2, Biotin QP004.3 (biotin-PDL1-FC); assay: PD-L1/PD-1 blocking ELISA, PD1-FC coated; row labelled EC50; competitor PD1-FC
# T2 sequence (Q9NZQ7 19-238 limits assumed): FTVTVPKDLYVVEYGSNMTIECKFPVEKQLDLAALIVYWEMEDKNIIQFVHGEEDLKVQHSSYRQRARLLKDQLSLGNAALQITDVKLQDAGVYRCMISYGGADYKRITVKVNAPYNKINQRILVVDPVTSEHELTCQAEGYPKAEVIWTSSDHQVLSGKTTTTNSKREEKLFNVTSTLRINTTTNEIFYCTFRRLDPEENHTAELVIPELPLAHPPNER
binding result [1],EC50 [2] [ng/mL],IC50 [3] [nM],Binder
binds,–,–,"QP3721116 (bispecific antibody, human IgG1, kappa, also called QD3721116 (QP11151116/QP322)) heavy: [here about 100 residues without letters]DSYYYYFWYDYWGQGTLVTVSS[here human IgG1 constant region without letters]GGGSGGGGSGGGGSGGGGSEVQLLESGGGLVQPGGSLRLSCAASGFTYGTYAMSWFRQAPGKGREGVACIDIYGRASYTDPVKGRFTISQDNSKNTLYLQMNSLKAEDTAVYYCAARDFGYCTASWVHEGFSRYWGQGTLVTVSS light: [here about 100 residues without letters][here about 120 residues without letters]"
–,5.92,4.89,"QP3721116 (bispecific antibody, human IgG1, kappa, Anti-CLDN18.2 IgG with the anti-PD-L1 VHH QP322 at the C-terminal of the heavy chain by linker (G4S)4; also called QD3721116 (QP11151116/QP322)) light: [here about 100 residues without letters][here about 120 residues without letters] heavy: [here about 100 residues without letters]DSYYYYFWYDYWGQGTLVTVSS[here human IgG1 constant region without letters]GGGSGGGGSGGGGSGGGGSEVQLLESGGGLVQPGGSLRLSCAASGFTYGTYAMSWFRQAPGKGREGVACIDIYGRASYTDPVKGRFTISQDNSKNTLYLQMNSLKAEDTAVYYCAARDFGYCTASWVHEGFSRYWGQGTLVTVSS"
